A lower IC50 marks a more sensitive line; a limit (>, <) means that the fit lies beyond the doses tested. AUC is the area under the same curve over the 256-fold range up to the top dose, as a fraction; it is 1 without any effect and falls as sensitivity rises. For some assays here: Any top dose called inferred was calculated from the reported fits. For some assays here: An entry number marks a drug with two screens in the source, which often give different values.
Assays:
Test in all cases: Viability of human cancer cell lines after 72 h of drug (GDSC screen)
Afatinib = compound: CN(C)C/C=C/C(=O)Nc1cc2c(Nc3ccc(F)c(Cl)c3)ncnc2cc1O[C@H]1CCOC1 [Afatinib]
Description: (§1)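 Human cancer cell lines in 384-well plates, medium with 10% serum, drug for 72 h over a 256-fold dose range (nine 2-fold or five 4-fold steps up to the top dose). Adherent lines were fixed and stained with the nucleic acid dye Syto60, suspension lines read with resazurin; signal relative to control wells, capped at 0 and 100%. One two-parameter sigmoid per drug and line, fitted in a mixed model over all curves with the slope shared within a line.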

PF-562271 = compound: CN(c1ncccc1CNc1nc(Nc2ccc3c(c2)CC(=O)N3)ncc1C(F)(F)F)S(C)(=O)=O [PF-562271]; conditions: top dose 2.56 µM; top dose inferred
Description: as §1

SNX-2112 = compound: CC1(C)CC(=O)c2c(C(F)(F)F)nn(-c3ccc(C(N)=O)c(N[C@H]4CC[C@H](O)CC4)c3)c2C1 [SNX-2112]; conditions: top dose 2.56 µM
Description: as §1

XMD13-2 = compound: O=C(NC1CC1)c1cccc(-c2ccc3c(NC(=O)C4CC4)n[nH]c3c2)c1 [XMD13-2]; conditions: top dose 10.24 µM; top dose inferred
Description: as §1

[1] = top dose 0.5 µM, screen: GDSC drug entry 1032
[2] = top dose 10 µM, screen: GDSC drug entry 1377, top dose inferred

Row | Cell Line | AUC (Afatinib; [1]) | IC50 (Afatinib; [1]) | AUC (Afatinib; [2]) | IC50 (Afatinib; [2]) | AUC (PF-562271) | IC50 (PF-562271) | AUC (SNX-2112) | IC50 (SNX-2112) | AUC (XMD13-2) | IC50 (XMD13-2)
1 | NCI-H226 (lung squamous cell carcinoma, adherent) | 0.987 | > 500 nM | 0.969 | > 10000 nM | 0.927 | > 2560 nM | 0.357 | 63 nM | 0.953 | > 10200 nM
2 | A673 (rhabdomyosarcoma, adherent) |  |  | 0.977 | > 10000 nM | 0.969 | > 2560 nM | 0.855 | 1720 nM | 0.945 | > 10200 nM
3 | BHY (head and neck, adherent) |  |  | 0.655 | 1690 nM | 0.777 | 1030 nM | 0.516 | 177 nM | 0.937 | > 10200 nM
4 | ES3 (Ewing sarcoma, adherent) |  |  | 0.87 | > 10000 nM | 0.974 | > 2560 nM | 0.459 | 123 nM | 0.867 | 10100 nM
5 | KYSE-270 (oesophagus, adherent) |  |  | 0.883 | 7980 nM | 0.801 | 1040 nM | 0.393 | 85.3 nM | 0.969 | > 10200 nM
6 | LU-99A (large cell lung carcinoma, adherent) |  |  | 0.986 | > 10000 nM | 0.96 | > 2560 nM | 0.701 | 586 nM | 0.979 | > 10200 nM
7 | HSC-3 (head and neck, adherent) |  |  | 0.22 | 111 nM | 0.911 | > 2560 nM | 0.478 | 140 nM | 0.979 | > 10200 nM
8 | A172 (glioma, adherent) |  |  | 0.981 | > 10000 nM | 0.929 | > 2560 nM | 0.828 | 1490 nM | 0.94 | > 10200 nM
9 | SW156 (kidney, adherent) |  |  | 0.826 | 6950 nM | 0.957 | > 2560 nM | 0.94 | > 2560 nM | 0.979 | > 10200 nM
10 | SW872 (soft tissue, adherent) |  |  | 0.976 | > 10000 nM | 0.884 | 2310 nM | 0.734 | 687 nM | 0.985 | > 10200 nM
11 | GP5d (large intestine, adherent) |  |  | 0.976 | > 10000 nM | 0.844 | 1550 nM | 0.471 | 134 nM | 0.919 | > 10200 nM
12 | NCI-H1993 (lung adenocarcinoma, adherent) | 0.943 | > 500 nM | 0.981 | > 10000 nM | 0.971 | > 2560 nM | 0.928 | > 2560 nM | 0.971 | > 10200 nM
13 | MDA-MB-436 (breast, adherent) | 0.97 | > 500 nM | 0.926 | > 10000 nM | 0.971 | > 2560 nM | 0.835 | 2330 nM | 0.971 | > 10200 nM
14 | OAW-28 (ovary, adherent) |  |  | 0.912 | > 10000 nM | 0.966 | > 2560 nM | 0.983 | > 2560 nM | 0.895 | > 10200 nM
15 | H2803 (mesothelioma, adherent) |  |  | 0.971 | > 10000 nM | 0.944 | > 2560 nM | 0.945 | > 2560 nM | 0.981 | > 10200 nM
16 | BEN (non-small cell lung carcinoma, adherent) |  |  | 0.984 | > 10000 nM | 0.958 | > 2560 nM | 0.913 | > 2560 nM | 0.977 | > 10200 nM
17 | KALS-1 (glioma, adherent) |  |  | 0.96 | > 10000 nM | 0.936 | > 2560 nM | 0.598 | 328 nM | 0.81 | 8030 nM
18 | 697 (lymphoblastic leukaemia, suspension) | 0.977 | > 500 nM | 0.969 | > 10000 nM | 0.896 | 2030 nM | 0.249 | 36.6 nM | 0.803 | 3940 nM
19 | NUGC-3 (stomach, adherent) |  |  | 0.576 | 1040 nM | 0.92 | > 2560 nM | 0.81 | 1560 nM | 0.971 | > 10200 nM
20 | J82 (bladder, adherent) |  |  | 0.966 | > 10000 nM | 0.92 | > 2560 nM | 0.912 | > 2560 nM | 0.977 | > 10200 nM
21 | CAMA-1 (breast, adherent) |  |  | 0.962 | > 10000 nM | 0.884 | > 2560 nM | 0.841 | 2480 nM | 0.94 | > 10200 nM
22 | SW1088 (glioma, adherent) |  |  | 0.938 | > 10000 nM | 0.963 | > 2560 nM | 0.716 | 796 nM | 0.956 | > 10200 nM
23 | MKN1 (stomach, adherent) |  |  | 0.897 | > 10000 nM | 0.887 | > 2560 nM | 0.723 | 713 nM | 0.951 | > 10200 nM
24 | PA-TU-8902 (pancreas, adherent) | 0.954 | > 500 nM | 0.852 | 9840 nM | 0.912 | > 2560 nM | 0.544 | 215 nM | 0.945 | > 10200 nM
25 | SK-LU-1 (lung adenocarcinoma, adherent) |  |  | 0.973 | > 10000 nM | 0.822 | 2060 nM | 0.744 | 990 nM | 0.934 | > 10200 nM
26 | OVCAR-3 (ovary, adherent) |  |  | 0.946 | > 10000 nM | 0.903 | > 2560 nM | 0.98 | > 2560 nM | 0.987 | > 10200 nM
27 | Calu-6 (lung adenocarcinoma, adherent) | 0.978 | > 500 nM | 0.931 | > 10000 nM | 0.877 | > 2560 nM | 0.765 | 1070 nM | 0.929 | > 10200 nM
28 | SNU-398 (liver, adherent) |  |  | 0.957 | > 10000 nM | 0.71 | 642 nM | 0.374 | 70.8 nM | 0.88 | > 10200 nM
29 | HCC1937 (breast, adherent) | 0.946 | > 500 nM | 0.96 | > 10000 nM | 0.943 | > 2560 nM | 0.815 | 1690 nM | 0.908 | > 10200 nM
30 | LNCaP-Clone-FGC (prostate, adherent) |  |  | 0.976 | > 10000 nM | 0.962 | > 2560 nM | 0.617 | 353 nM | 0.888 | > 10200 nM

Reference: the supplement of paper PMC4967469
